Source: PubChem BioAssay (NCI)
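Five concentrations, 48 hours, 96-well plates. GI50 is the concentration that inhibits growth by half. TGI: concentration producing complete growth inhibition.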

Each molecule was assayed on NCI-H322M lung (assay: NCI tumour cell line growth inhibition, 48 h).
With `FC(F)(F)c1cc(Nc2cccc(Oc3ccc(NC4=NCCN4)nc3)c2)ccc1Cl` the GI50 was 2.4 µM and the TGI was 6.57 µM. For `CN1CCN(Cc2ccc(NC(=O)c3cncc(C#Cc4cnc5ccc(N6CCN(C)CC6)nn45)c3)cc2C(F)(F)F)CC1`, the GI50 was 1.88 µM and the TGI was 4.13 µM. `C[C@@H]1CN(c2ccc3ncc(C#Cc4cncc(C(=O)Nc5ccc(CN6CCN(C)CC6)c(C(F)(F)F)c5)c4)n3n2)C[C@H](C)O1` showed a GI50 of 0.0525 µM and a TGI of 0.36 µM.
